Source: article PMC4336329 (PLoS ONE, 2015)
Out of some 310,000 compounds screened, about 14,000 (4.5%) showed an effect of 50% or more. Effects have a minus sign here. The list shows a part of the results.

Molecular target: human ether-à-go-go-related gene (hERG) potassium channel (human, UniProt Q12809)
Assay: primary screen, population patch clamp on CHO cells stably expressing hERG
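Further: peak tail current of the secondary pulse compared with the same well before compound.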

Chain of human ether-à-go-go-related gene (hERG) potassium channel (Q12809 whole entry, looked up): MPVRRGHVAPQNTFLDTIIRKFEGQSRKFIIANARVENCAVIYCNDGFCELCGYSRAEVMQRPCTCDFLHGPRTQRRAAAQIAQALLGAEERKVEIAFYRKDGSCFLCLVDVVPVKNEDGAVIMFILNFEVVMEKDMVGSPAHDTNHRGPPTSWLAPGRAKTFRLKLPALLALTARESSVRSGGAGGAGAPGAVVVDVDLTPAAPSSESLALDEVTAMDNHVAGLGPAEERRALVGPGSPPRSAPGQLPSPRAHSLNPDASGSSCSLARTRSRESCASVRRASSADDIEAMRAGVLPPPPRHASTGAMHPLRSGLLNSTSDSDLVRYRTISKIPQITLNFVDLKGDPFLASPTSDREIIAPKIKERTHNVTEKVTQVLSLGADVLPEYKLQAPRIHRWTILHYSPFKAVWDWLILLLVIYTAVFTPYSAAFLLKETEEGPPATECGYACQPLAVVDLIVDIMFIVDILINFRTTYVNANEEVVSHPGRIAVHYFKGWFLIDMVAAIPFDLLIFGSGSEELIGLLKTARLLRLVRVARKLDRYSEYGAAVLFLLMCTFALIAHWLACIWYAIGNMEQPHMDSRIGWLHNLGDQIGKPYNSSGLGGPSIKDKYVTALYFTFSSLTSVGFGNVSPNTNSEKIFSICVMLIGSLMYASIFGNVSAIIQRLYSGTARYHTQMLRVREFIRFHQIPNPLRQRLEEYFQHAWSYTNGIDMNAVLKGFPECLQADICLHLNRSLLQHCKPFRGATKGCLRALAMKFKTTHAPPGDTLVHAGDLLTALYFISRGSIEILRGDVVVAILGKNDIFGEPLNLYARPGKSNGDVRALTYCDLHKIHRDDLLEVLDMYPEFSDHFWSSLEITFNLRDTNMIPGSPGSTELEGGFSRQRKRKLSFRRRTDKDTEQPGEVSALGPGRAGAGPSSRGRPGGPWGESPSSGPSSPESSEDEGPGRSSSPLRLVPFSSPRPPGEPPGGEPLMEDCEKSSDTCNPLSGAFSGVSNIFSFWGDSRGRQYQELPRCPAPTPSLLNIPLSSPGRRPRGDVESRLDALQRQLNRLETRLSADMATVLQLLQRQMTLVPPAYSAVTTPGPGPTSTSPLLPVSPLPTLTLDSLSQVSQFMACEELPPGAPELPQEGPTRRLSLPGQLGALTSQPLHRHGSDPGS

| SMILES | hERG current change (%, negative = inhibition) at 10uM [%] |
| --- | --- |
| CCCCn1c(=O)[nH]c(=O)c2c1nc(-c1ccc(OC(F)F)c(OC)c1)n2C | 17.1 |
| CCS(=O)c1ccccc1C(=O)OCC(=O)Nc1cccc(S(=O)(=O)N2CCCCC2)c1 (stereo not drawn) | -23.3 |
| Nc1cc(=O)[nH]c(SCC(=O)N2CCc3ccccc3C2)n1 | 12.3 |
| O=C(CN1C(=O)NC2(CCOc3ccccc32)C1=O)Nc1ccc(F)c(F)c1F (stereo not drawn) | -11 |
| COc1ccc(OC)c(NC(=O)C2CCN(c3cc(-c4ccccc4)nc4ncnn34)CC2)c1 | -10.8 |
| Cc1nn2c(N3CCOCC3)cc(C(C)C)nc2c1-c1ccccc1 | 9.66 |
| CCCCNC(=S)N(CCN(C)C)Cc1cc2cc3c(cc2[nH]c1=O)OCCO3 | 7.02 |
| NNC(=O)CNC(=O)c1cccc(Br)c1 | -1.26 |
| COc1cc(/C=N/NC(=O)Cc2csc(C)n2)ccc1OCC(C)C | -0.122 |
| CCc1nc2ccccc2n1CC(O)COCC1CC=CCC1 (stereo not drawn) | -31.9 |
| O=C(NCc1cccnc1)/C(=C/c1ccc(-c2cccc(C(F)(F)F)c2)o1)NC(=O)c1ccccc1 | -74.1 |
| O=C(CC(=O)N1CCN(c2ccccn2)CC1)Nc1ccc2nc3n(c(=O)c2c1)CCCCC3 | -17.9 |
| CCCC(=O)CN1C(=O)C2(OCCO2)c2ccccc21 | 7.06 |
| CCCn1c(=O)c2ccccc2n2c(SCC(=O)NCc3cccs3)nnc12 | -18.1 |
| CCn1c2ccccc2c2nnc(NN)nc21 | 10.6 |
| COc1ccc(-c2cnc(N)nc2-c2ccc(OC)cc2)cc1 | 22.4 |
| Cc1coc2cc3oc(=O)ccc3cc12 | 9.84 |
| CN(CC(=O)O)c1ccc(S(=O)(=O)N2CCOCC2)cc1[N+](=O)[O-] | 12.5 |
| COc1cc(OC)cc(-c2nnc(SCc3cccnc3)o2)c1 | -24.8 |
| Cc1nn(Cc2ccc(Cl)cc2)c(C)c1NC(=O)c1cc(-c2ccc3c(c2)OCO3)on1 | -3.11 |
| CC(=O)OC(C(=O)NC1CCCCC1)c1ccc(Cl)c(Cl)c1 (stereo not drawn) | 30.7 |
| CC1CCN(C(=O)CN2C(=O)NC3(CCCCCC3)C2=O)CC1 | 9.19 |
| CCC(C)(C)C1CCc2[nH]nc(C(=O)NCc3ccccn3)c2C1 (stereo not drawn) | 2.6 |
| COc1ccc(C(=O)NC2CC2)cc1OC1CCN(Cc2cc(C)cc(C)c2)CC1 | -70.2 |
| Cc1cc(C)c(C(=O)CN2C(=O)NC3(CCCCCC3)C2=O)cc1C | 16.8 |
| C#CCOCCOCCOCCNc1nc(N2CCN(C(=O)CCCCCCCCCCNC(=O)[C@@H](CCSC)n3cc(CCO)nn3)CC2)nc(N2CCN(C(=O)CCCCCCCCCCNC(=O)[C@H](CCCN=C(N)N)n3cc(C[C@@H](C)CC)nn3)CC2)n1 | 16.1 |
| Cc1ccc(S(=O)(=O)Cc2nnnn2-c2ccccc2)cc1 | 2.98 |

| SMILES | hERG current change (%, negative = inhibition) at 10uM [%] |
| --- | --- |
| O=C(COc1ccccc1)Nc1ccc(N2CCN(C(=O)c3ccco3)CC2)cc1 | -53 |
| CC(=O)Nc1ccc(/C=C(\C#N)C(=O)NC2CCCCC2)cc1 | 11.2 |
| Cc1c(C(=O)NC(=S)N(Cc2ccccc2)c2ccccn2)cccc1[N+](=O)[O-] | 4.9 |
| CCOc1ccc(NC(=O)c2ccccc2NS(C)(=O)=O)cc1 | -35 |
| CCn1c(=O)c2cc(C(=O)N(C)c3ccc(OC)cc3OC)sc2c2ccccc21 | -6.48 |
| Nc1cc(S(=O)(=O)N2CCCCC2)ccc1Oc1ccc(Cl)cc1 | -8.53 |
| Cc1ccc(NC(=O)C2CCN(c3nc(C)cc(C)n3)CC2)cc1 | 26.3 |
| Cc1ccccc1NC(=O)COc1coc(CN2CCN(c3ccccc3)CC2)cc1=O | -21.1 |
| CC(C)(C)c1nnc(NC(=O)c2cccnc2Cl)s1 | 13.2 |
| COc1ccc(OCc2nn3c(-c4cccc(OC)c4)nnc3s2)cc1 | -2.35 |
| Cc1ccc(-c2csc(NC(=O)Cn3[nH]c(=O)c4ccccc4c3=O)n2)cc1 | 8.61 |
| NC(=O)CC(NC(=O)c1ccccc1)c1ccc(NCCN2CCOCC2)c([N+](=O)[O-])c1 (stereo not drawn) | 11.8 |
| CC1=NN(c2ccccc2)C(=O)C1/C=C1\NC(=S)NC1=O (stereo not drawn) | 26.5 |
| COc1ccccc1NC(=O)Cn1nnc2sc3c(c2c1=O)CC(C)(C)OC3 | 7.33 |
| CCCCNC(=O)CSc1cc(=O)n(C)c2ccccc12 | 4.11 |
| Cl.Nc1nc(Nc2cccc(F)c2)nc2ccccc12 | -19.3 |
| COc1cccc2cc(CC(=O)c3ccc(C)c(C)c3)c(=O)oc12 | 4.6 |
| CCCCC(=O)Nc1ccc(Cl)cn1 | -8.54 |
| O=C(NC1=NCCS1)c1ccccc1OCc1ccccc1Cl | -4.33 |
| CC(C)c1onc(C(=O)Nc2cccc(Cl)c2)c1[N+](=O)[O-] | 12.3 |
| CCCc1cc2c(cc1NC(=O)c1ccccc1Cl)OCO2 | 11.9 |
| Cc1cccc(-n2cnc3sc(C)c(C)c3c2=O)c1 | -2.72 |
| COc1ccc(/C=C(\C#N)C(=O)c2c(C)[nH]c3ccccc23)cc1OC | -5.95 |
| Fc1ccc2c(c1)C(c1ccncc1)=NNC(c1ccc(Cl)cc1)=N2 | -0.894 |
| Cc1ccc(C)c(Cn2c3ccccc3c3cnn(CC(=O)NCc4ccccn4)c(=O)c32)c1 | 9.09 |
| CC1(C)NC(C)(C)C(O)(C(N)=O)C1=O (stereo not drawn) | 0.964 |
| COc1ccc(C(O)(CCc2ccccc2)CCN2CCCCC2)cc1.Cl (stereo not drawn) | -17.5 |
